This note sets out measurements from the supplement of paper PMC11417369.

± gives the standard deviation of the averaged measurements. The list shows a part of the results.

The experiment concerns PfAP2-G AP2 domain (GST-tagged). Put plainly: gcPBM binding intensity (ln(normalized median fluorescence intensity)); higher = stronger DNA binding. In a few lines:
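In this array assay, P. falciparum DNA-binding domains with a GST tag, expressed in E. coli, were applied for 1 h to primer-extended double-stranded 36-bp intergenic genomic probes and negative controls on an Agilent 4 × 180k array. Bound protein was visualised with Alexa488 anti-GST antibody at 488 nm. Binding intensity is the highest Masliner-normalised natural-log median intensity across replicate spots of either probe orientation.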
Take “GGAACTTATTTTTATACACACATATGTGCATATTAT [CACACA_site629]”: the “gcPBM binding intensity (ln)” value was 10.14 ± 0.035.
For “GTAAAAAAATTAAAAATTAACAAGGAATTAAGTATA [CACACA_negctrl_site1688]” the value was 9.9 ± 0.071; for “TATACATATATATACACACACACATATATATATATA [CACACA_site1299]”, 10.1 ± 0.19.
As for TATATATATTTAAAGGTGCAGATGCCAGTGTATATT, the figure is 10.2 ± 0.2.
Consider “AATGAACTCACGAGCACACACACACCGATATATATA [CACACA_site4710]”, for which the “gcPBM binding intensity (ln)” value came out at 10.4 ± 0.2.
For “ATAAATATATTTAAATGTACATAATATATATATATA [XGTACX_site5137]” the value was 11.1 ± 0.62; for “ACATATTCATATGGAAGTACGATAATGTAGTCATAT [XGTACX_site7080]”, 10.9 ± 0.52.
For the sequence “ATATATACATACAAATTAATTACGAGGAATATATTA [XGTACX_negctrl_site417]”, the “gcPBM binding intensity (ln)” value is 9.86 ± 0.014.
As for “TTAAAAAAATAATTAACACACACATGTATATCTATA [CACACA_site9026]”, the figure is 9.89 ± 0.099; as for “TTGTAATAAATAAAAGTGCAGATATGGTTCCACTAA [GTGCAC_site9942]”, 10.4 ± 0.34; as for “ATCATAAATATAGCAACACACGGATTACATAAAATA [CACACA_site2796]”, 10.1 ± 0.22.
For the sequence “TAAAAAAAAATAAATGGTACACAATTAAATGTTTAT [XGTACX_site5255]”, the “gcPBM binding intensity (ln)” value turned out to be 11.2 ± 0.58.
For AGTGACACCAAAGGGGTGCAATGAAATTAAAAATAT the value was 10.2 ± 0.21; for “TTTATTCATTTCTAAAAATATTAAAATAGAATGAAT [CACACA_negctrl_site325]”, 9.59 ± 0.11; for “AAACAAAAAATATATACACACTAAACATAAAAAAAA [CACACA_site4185]”, 9.96 ± 0.16.
Consider “TAGTTTTTTATATATTGTACAAATAATATATTATAT [XGTACX_site2564]”, for which the “gcPBM binding intensity (ln)” value stood at 10.9 ± 0.57.
As for “ATTTTATGATATATTTGTACTTAACATTTGGATATA [XGTACX_site5888]”, the figure is 11 ± 0.63; as for “ATAAGAAAATCAAAAAGTACTTTTTACAAAGATAAA [XGTACX_site824]”, 11.1 ± 0.64.
As for “ATATACTATATATAATGTACATATATATTATTATGC [XGTACX_site2957]”, the figure is 10.9 ± 0.47; as for “TCTTTTTTTAATAAAACATGCAATATTATATATGTA [TGCATGCA_site236]”, 9.745 ± 0.049.
Regarding “GTAATTATTAATAAAACATGCGTATAAAATTTTCTC [TGCATGCA_site50]”, the “gcPBM binding intensity (ln)” value is 9.99 ± 0.014.
On to “TAAATTCTTTAAAACTTTAAAACAAAAAAAAAAAAA [CACACA_negctrl_site1078]”, for which the “gcPBM binding intensity (ln)” value worked out at 9.51 ± 0.45.
As for “AAAAAAATATATATATATATATATATATATTTATAT [XGTACX_negctrl_site86]”, the figure is 9.255 ± 0.035; as for “TGCAAAGGTGAAAGAACACACAAAAAAAAAAAAAAA [CACACA_site4024]”, 9.81 ± 0.54.
For the sequence “TTCAATGCTAATTTATGTACATATGTATATAAAATA [XGTACX_site8335]”, the “gcPBM binding intensity (ln)” value was 11.1 ± 0.76.
For the sequence “CCCAAAAAAAATTTATGTACTTATTAAATATATATA [XGTACX_site6455]”, the “gcPBM binding intensity (ln)” value came to 11.3 ± 0.86.
For TTTATATAAATTTAAGTGCAAAATGAACAAGTGAAA the value was 10.3 ± 0.3; for “AAAATATATATTTGTTGTACAATATTAATTATTAAA [XGTACX_site1612]”, 11.5 ± 0.81.
In the case of “TTTTTAATCTCATATGTATAATATATTTTTATTAAA [XGTACX_negctrl_site236]”, the “gcPBM binding intensity (ln)” value was found to be 9.93 ± 0.23.
For “AATTTTAGATTTAGCACACATTTTTTTTTTTTTTTT [CACACA_site6105]” the value was 10.4 ± 0.25; for “TTCAAAGGGAAATTAACACACACATATATATATATA [CACACA_site8777]”, 10.2 ± 0.67; for “TATGAAAATAAAATATGTACATATTTTAAATGTTAT [XGTACX_site7352]”, 11.4 ± 0.81.
In the case of “CAAATGTGTTCTTCAGGTACAGATACACATTTATGA [XGTACX_site2664]”, the “gcPBM binding intensity (ln)” value amounted to 11 ± 0.5.
Take “TAAAAAATTATATATTGTACGAATGCATAAAAAAAA [XGTACX_site4606]”: the “gcPBM binding intensity (ln)” value was 10.8 ± 0.41.
As for “AAAAAAAAAAAAAGAACATGCGACTTTAAGAACTGG [TGCATGCA_site792]”, the figure is 9.91 ± 0.099; as for “CACCATGTTAACAAAGCATGCATCTCTATAGTTTTA [TGCATGCA_site97]”, 9.995 ± 0.049; as for “AATATAAATAATTATACACACTTAATATATATATAC [CACACA_site5533]”, 10.01 ± 0.035.
For the sequence “ATAACAAAAAAAAAGGTGCTACAAAATGAATAAAAA [GTGCAC_site9659]”, the “gcPBM binding intensity (ln)” value is 9.975 ± 0.035.
As for “ATATTTTATTTTAATACACACAAGTTATATAACCAC [CACACA_site6508]”, the figure is 10.3 ± 0.35; as for “TACATATATATATATGTACACACATTAATAAAAAAA [CACACA_site9058]”, 11.4 ± 0.87; as for “AAATATATATATATATATATAAATATATACATATAT [TGCATGCA_negctrl_site517]”, 9.35 ± 0.23.
Turning to “CTTTAAATTAATAAAAGTACATTATTTATATATTTT [XGTACX_site4808]”, the “gcPBM binding intensity (ln)” value was determined as 11.1 ± 0.73.
For “ATATTTAGGAAAAATAGTACACATTTAAATAATAAT [XGTACX_site7989]” the value was 11.5 ± 1.1; for “TAGGTGCCTTTTTTCACACACATGTCAACTAAATAT [CACACA_site2656]”, 10.2 ± 0.2; for TATTAATTTAAATGGGTGCAAAACCTATATAAATAT, 10.2 ± 0.26.
For “AAAATGTCCCGTAGAAAATAAATTTATTACGCAATA [CACACA_negctrl_site1564]” the value was 10.2 ± 0.13; for “AACATATATAAATACACACACATATATATATGAAAT [CACACA_site4312]”, 10.1 ± 0.25; for “ATTTATGTTAATAAGTGTACAATAAATTTTTTTTAT [XGTACX_site7658]”, 11.3 ± 0.83.
On to “ATTAATAAATTCAATTGTACTTGTTTATACATAAAA [XGTACX_site3733]”, for which the “gcPBM binding intensity (ln)” value was found to be 11.1 ± 0.8.
For “AAAATTAACCGTAACACACACACATATAAATATGTA [CACACA_site7791]” the value was 9.89 ± 0.014; for “TTGTTTAAGTCACGAACACACATATATCATCAATTT [CACACA_site986]”, 10.11 ± 0.071; for “TAAAAGTTCACCTGTACACACATATAAATATGTACA [CACACA_site6901]”, 11.7 ± 0.85.
For “CGTTTTCTATATCATTGTACATATTCATGTGTAAAT [XGTACX_site2741]”, the “gcPBM binding intensity (ln)” value came out at 10.9 ± 0.65.
With “AACAGACGAAGACACACACACATATATATATATATA [CACACA_site1020]”, the “gcPBM binding intensity (ln)” value stood at 10.2 ± 0.31.
As for “TTATTTTATTTTTGTGCACACTGATAAATTGAAAAG [CACACA_site2949]”, the figure is 10.7 ± 0.52.
For “TTATGGTGCAACATTATGCACACCGTTAAATAACTA [CACACA_site3846]” the value was 10.4 ± 0.4; for “ATTTATTTTGTTGTTGTTTTTATTTGATTGTTTTAT [CACACA_negctrl_site1275]”, 9.785 ± 0.007.
